Out of some 150,000 compounds screened, about 540 (0.36%) showed an effect of 50% or more. The list shows a part of the results.
The compounds below were run on Plasmodium falciparum (assay: Primary screen in NF54 nanoGlo assay, in single point, at 2uM, 72h; a lower Z score goes with more inhibition). Conditions: timepoint 72 hour.
Type: functional, Erythrocyte

Row | SMILES | % Inhibition | Z score
1 | C[C@H](NCC(=O)N1CCc2ccccc2C1)C1CCOCC1 | 5% | -0.78
2 | CC(C)c1nc(N2C[C@H](C(C)C)[C@@H](N(C)C)C2)no1 | -8% | 1.29
3 | Fc1ccc2c(c1)C(c1ccccc1)=NNC(c1cccs1)=N2 | -39% | 4.58
4 | COc1cc2c(cc1OC)CN(C1CCN(CCn3cc(Cl)cn3)CC1)CC2 | -1% | 0.13
5 | CN(C)C(=O)[C@H]1CC[C@@H](C(=O)NCc2ccncc2OCC(F)(F)F)O1 | -5% | 1.03
6 | COc1cc(N)ccc1OCC(F)F | 37% | -4.21
7 | CC(=O)N1N=C(c2ccncc2)C[C@]1(O)C(F)(F)F | -33% | 3.92
8 | Cc1cccc(-n2cc(CN(C)C(=O)[C@@H](O)COc3ccccc3C)cn2)c1 | -15% | 2.65
9 | Cc1nc(N)nc(N2CCO[C@H](c3ccccc3)C2)c1CCC(=O)O | 0% | -0.08
10 | C[C@@](O)(CNC(=O)N1CCNC1=O)Cc1ccsc1 | 17% | -1.99
11 | O=C1CC[C@@H](C(=O)N2CCC(c3noc(C(F)F)n3)CC2)n2cccc21 | -8% | 1.17
12 | Cc1ccc(C2OCCCC2CNC(=O)c2ccc(C)[nH]c2=O)cc1 (configuration not stated) | -6% | 1.1
13 | CCCc1cncnc1N1CCC[C@]2(CCC(=O)N(C(C)C)C2)C1 | -5% | 0.77
14 | Cc1cc(NC(=O)c2ncoc2C(C)C)n(-c2ccncc2)n1 | -3% | 0.37
15 | COc1cc(NC(=O)CN2C(=O)CCn3nc(-c4cccn4C)cc32)cc(OC)c1OC | -4% | 0.77
16 | COCCN1CC[C@@]2(CCC1=O)CN(CCc1cccc(F)c1)CCN2C | -4% | 0.74
17 | N#Cc1cccc(C(=O)N2CCN(Cc3c[nH]cn3)C[C@H](O)C2)c1 | -8% | 1.4
18 | O=C(c1cc(=O)c(OCc2ccccc2Cl)c[nH]1)N1CCOCC1 | 7% | -0.85
19 | CCCCOC1CC(N(C)CC(=O)O)C1(C)C (configuration not stated) | 2% | -0.26
20 | Cc1ccccc1C(=O)N1CCC[C@H](Oc2ccncc2Cl)C1 | 2% | -0.28
21 | COc1ccc2c(C)c(C(=O)N3CCNC(=O)[C@@H]3Cc3ccccc3)oc2c1 | -3% | 0.54

Row | SMILES | % Inhibition | Z score
22 | CC(=O)N1CC(C(=O)NCc2ccc(-c3ccccc3)c(C)c2)C1 | -5% | 0.67
23 | C[C@H](O)CNc1cc(N2Cc3cccc(Cl)c3C2)ncn1 | -10% | 1.38
24 | COCC(=O)OCc1csc(NC(C)=O)n1 | -3% | 0.5
25 | COCCN1C[C@@H](C(=O)N2Cc3cnc(C)cc3C2)CCC1=O | -3% | 0.35
26 | CCc1nn(-c2ccc(OC)cc2)c(Oc2ccc(F)cc2F)c1CN(C[C@H]1CCCO1)C(=O)NC(C)C | -13% | 2.05
27 | Cc1oc(-c2ccn[nH]2)cc1S(=O)(=O)N(C)C[C@H]1CCCCN1C | -13% | 2.14
28 | O=C(Cn1cc(-c2ccccc2)c2ncnc(N3CCOCC3)c21)NCc1ccc(F)cc1 | 0% | -0.01
29 | Cc1ncoc1C(=O)N1CCC[C@H](C(=O)c2ccc(C(F)(F)F)cc2)C1 | -1% | 0.13
30 | COc1ccccc1C(c1c(O)c2ccccc2[nH]c1=O)c1c(O)c2ccccc2[nH]c1=O | -15% | 2.25
31 | O=C(Nc1ccc(N2CCOCC2)nc1)C1=Cc2ccccc2OC1 | -13% | 1.38
32 | C[C@H](Oc1ccccc1Cl)C(=O)N(Cc1ccccc1Cl)c1ccccn1 | -4% | 0.63
33 | O=C(Cn1c(=O)cnc2ccccc21)N1CCC2(CCO2)CC1 | -10% | 1.84
34 | COC(=O)c1ccc(N(C(=O)c2cc3ccccc3nc2C)C(C)C)c(C)c1 | -8% | 0.86
35 | CC1CCN(C(=O)CN(C)CCCn2ccnc2)CC1 | -6% | 0.98
36 | Cc1cnc(C(=O)N2CCC[C@@H]2Cn2ccnc2)cc1C | 7% | -0.67
37 | CCc1ccc(NC(=O)Cn2c(=O)cnc3cc(C(=O)NC4CCCC4)ccc32)cc1 | -3% | 0.34
38 | CC(C)(C)NC(=O)c1ccc(F)c(F)c1 | 6% | -1.01
39 | CC[C@@H](C(=O)N1CCN(c2ccc(NC(=O)c3ccc(OC)cc3)cc2C(=O)NCc2ccc(F)cc2)CC1)c1ccccc1 | -15% | 1.28
40 | Cc1cnc(=O)n(Cc2ccccc2F)c1 | -7% | 0.82
41 | O=C(C(=O)N1CC[C@@]2(CCCN(CC3CCC3)C2=O)C1)c1ccco1 | -12% | 2.23

— ChEMBL document CHEMBL4888484, “Replenishing the malaria drug discovery pipeline: Screening and hit evaluation of the MMV Hit Generation Library 1 (HGL1) against asexual blood stage Plasmodium falciparum ,using a nano luciferase reporter read-out” (2022)
